Data from PubChem BioAssay (NCI).
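Briefly, cells in 96-well plates were exposed to five compound concentrations for 48 h, and endpoints were estimated by linear interpolation. Definition used: TGI = concentration required for complete inhibition of growth.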

Assays:
Test in all cases: inhibition of tumour cell growth, NCI panel, 48 h
HCT-15 colon = tested on: HCT-15 colon
NCI-H522 lung = tested on: NCI-H522 lung
SNB-75 CNS = tested on: SNB-75 CNS
SK-OV-3 ovarian = tested on: SK-OV-3 ovarian
SK-MEL-5 melanoma = tested on: SK-MEL-5 melanoma
HOP-92 NSCLC = tested on: HOP-92 NSCLC
UACC-257 melanoma = tested on: UACC-257 melanoma
OVCAR-4 ovarian = tested on: OVCAR-4 ovarian
NCI-H226 lung = tested on: NCI-H226 lung
MCF7 breast = tested on: MCF7 breast
NCI-H23 lung = tested on: NCI-H23 lung
SF-539 CNS = tested on: SF-539 CNS
A549 NSCLC = tested on: A549 NSCLC
KM12 colon = tested on: KM12 colon
SK-MEL-2 melanoma = tested on: SK-MEL-2 melanoma
M14 melanoma = tested on: M14 melanoma
MOLT-4 leukemia = tested on: MOLT-4 leukemia
SR leukemia = tested on: SR leukemia
UO-31 renal = tested on: UO-31 renal
OVCAR-3 ovarian = tested on: OVCAR-3 ovarian
HOP-62 NSCLC = tested on: HOP-62 NSCLC
CCRF-CEM leukemia = tested on: CCRF-CEM leukemia
EKVX NSCLC = tested on: EKVX NSCLC
OVCAR-5 ovarian = tested on: OVCAR-5 ovarian
TK-10 renal = tested on: TK-10 renal
MDA-MB-435 = tested on: MDA-MB-435
NCI/ADR-RES ovarian = tested on: NCI/ADR-RES ovarian
HT29 colon = tested on: HT29 colon
HS 578T breast = tested on: HS 578T breast
RXF 393 renal = tested on: RXF 393 renal
NCI-H460 lung = tested on: NCI-H460 lung
UACC-62 melanoma = tested on: UACC-62 melanoma
SK-MEL-28 melanoma = tested on: SK-MEL-28 melanoma
PC-3 prostate = tested on: PC-3 prostate
ACHN renal = tested on: ACHN renal
SW-620 colon = tested on: SW-620 colon
HL-60(TB) leukemia = tested on: HL-60(TB) leukemia
SF-268 CNS = tested on: SF-268 CNS
SNB-19 CNS = tested on: SNB-19 CNS
SF-295 CNS = tested on: SF-295 CNS
BT-549 breast = tested on: BT-549 breast
OVCAR-8 ovarian = tested on: OVCAR-8 ovarian
RPMI-8226 leukemia = tested on: RPMI-8226 leukemia
IGROV1 ovarian = tested on: IGROV1 ovarian
U251 CNS = tested on: U251 CNS
HCC-2998 colon = tested on: HCC-2998 colon
K-562 leukemia = tested on: K-562 leukemia

O=C(/C=C/c1ccccc1)Nc1ccccc1F
TGI (HCT-15 colon): > 100 µM
TGI (NCI-H522 lung): > 100 µM
TGI (SNB-75 CNS): > 100 µM
TGI (SK-OV-3 ovarian): > 100 µM
TGI (SK-MEL-5 melanoma): > 100 µM
TGI (HOP-92 NSCLC): > 100 µM
TGI (UACC-257 melanoma): > 100 µM
TGI (OVCAR-4 ovarian): > 100 µM
TGI (NCI-H226 lung): > 100 µM
TGI (MCF7 breast): > 100 µM
TGI (NCI-H23 lung): > 100 µM
TGI (SF-539 CNS): > 100 µM
TGI (A549 NSCLC): > 100 µM
TGI (KM12 colon): > 100 µM
TGI (SK-MEL-2 melanoma): > 100 µM
TGI (M14 melanoma): > 100 µM
TGI (MOLT-4 leukemia): 51.2 µM
TGI (SR leukemia): > 100 µM
TGI (UO-31 renal): > 100 µM
TGI (OVCAR-3 ovarian): > 100 µM
TGI (HOP-62 NSCLC): > 100 µM
TGI (CCRF-CEM leukemia): > 100 µM
TGI (EKVX NSCLC): > 100 µM
TGI (OVCAR-5 ovarian): > 100 µM
TGI (TK-10 renal): > 100 µM
TGI (MDA-MB-435): > 100 µM
TGI (NCI/ADR-RES ovarian): > 100 µM
TGI (HT29 colon): > 100 µM
TGI (HS 578T breast): > 100 µM
TGI (RXF 393 renal): > 100 µM
TGI (NCI-H460 lung): > 100 µM
TGI (UACC-62 melanoma): > 100 µM
TGI (SK-MEL-28 melanoma): > 100 µM
TGI (PC-3 prostate): > 100 µM
TGI (ACHN renal): > 100 µM
TGI (SW-620 colon): > 100 µM
TGI (HL-60(TB) leukemia): 85.2 µM
TGI (SF-268 CNS): > 100 µM
TGI (SNB-19 CNS): > 100 µM
TGI (SF-295 CNS): > 100 µM
TGI (BT-549 breast): > 100 µM
TGI (OVCAR-8 ovarian): > 100 µM
TGI (RPMI-8226 leukemia): > 100 µM
TGI (IGROV1 ovarian): > 100 µM
TGI (U251 CNS): > 100 µM
TGI (HCC-2998 colon): > 100 µM
TGI (K-562 leukemia): > 100 µM
